Experimental data: PubChem BioAssay AID686979 (National Center for Advancing Translational Sciences (NCATS), 2013)
The campaign covered roughly 420,000 compounds. About 50,000 (12%) were called active. Inconclusive means that the source gave no clear call. Such entries were picked first, then a sample of the others. The call rests on the fitted dose curve; in most records, active means well fitted inhibition curve with a large enough effect; inconclusive means small, poorly fitted or top-dose-only effect; inactive means flat fitted curve, though single readings scatter. Potencies of inconclusive entries are left out as doubtful fits.

Experiment: qHTS for Inhibitors of human tyrosyl-DNA phosphodiesterase 1 (TDP1): qHTS in cells in presence of CPT; further: nearly all actives have a fitted effect of over 55% in size
Details: chicken DT40 Tdp1-/-;hTDP1 cells + 20 nM CPT, ATP luminescence, 48 h; activity change, negative = growth inhibition: at 46.2 µM (top of the series) unless noted
Method in brief: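 Cell growth measured by CellTiter-Glo luminescence after a minimum 48 h, 37 C compound exposure with 20 nM CPT in Tdp1-knockout DT40 cells stably expressing hTDP1, seeded 400/well; qHTS titration format.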
On the % scale 0 is the no-effect control and ±100 the full control effect; potency means the concentration at half of the fitted maximal effect; tags describe the fitted curve by direction and shape.

| SMILES | Potency | activity change, negative = growth inhibition |
| --- | --- | --- |
| O=C(Nc1nc2n(n1)C(c1ccc(F)cc1)C=C(c1ccccc1)N2)c1ccc(Cl)cc1 (stereo not drawn) | inconclusive [inhibitor, single point] |  |
| CCn1c(O)c(N=NC(=O)CNC(=O)c2ccccc2F)c2ccccc21 | inconclusive [inhibitor, single point] |  |
| CCN(CC)CCn1c2ccccc2c(=O)c2c(O)ccc(O)c21 | active: 7.31 µM |  |
| CC(=O)c1ccc(S(=O)(=O)N2CCN(C(=O)c3ccc(N)c([N+](=O)[O-])c3)CC2)cc1 | inconclusive [inhibitor, single point] |  |
| COc1ccc(C(=O)Nc2nc(-c3ccccc3)c(C(C)=O)s2)c(OC)c1 | inconclusive [inhibitor, partial curve] |  |
| Nn1c(SCC(=O)N2CCCCCC2)nnc1-c1ccco1 |  | inactive: 4.6% |
| CC(CNC(=O)c1ccccc1[N+](=O)[O-])NC(=O)c1ccccc1[N+](=O)[O-] (stereo not drawn) |  | inactive: 1.43% |
| COc1ccccc1C(=O)NNC(=O)C1CCN(C(=O)OC(C)(C)C)CC1 |  | inactive: 0.214% |
| O=[N+]([O-])c1cccc(N=Nc2ccc(O)cc2O)c1 | active: 3.26 µM |  |
| CCC(C)NS(=O)(=O)c1ccc(S(=O)(=O)N(CCc2ccc(OC)c(OC)c2)Cc2cccs2)cc1 (stereo not drawn) | active: 10.3 µM |  |
| CC(C)(C)c1ccc(C(=O)N2CCC2(C)C(=O)Nc2cccc3ncccc23)cc1 (stereo not drawn) | active: 23.1 µM |  |
| COc1ccc2nc3n(c(=O)c2c1)-c1ncccc1C(=O)NC3C (stereo not drawn) |  | inactive: 3.8% |
| COc1ccc(C)cc1-n1nnnc1SCc1nc2ccccc2c(=O)[nH]1 | active: 13 µM |  |
| Cn1c(NCCOc2ccccc2Cl)nc2cc(-c3ccc(F)cc3)sc2c1=O | inconclusive [inhibitor, single point] |  |
| CC1(C)CN(C2CCCCC2)C(=O)[C@H]1CC(=O)Nc1ccc(Br)cc1 | inconclusive [inhibitor, single point] |  |
| COc1cccc(NC(=O)CSCc2n[nH]c(=O)[nH]2)c1 |  | inactive: -9.81% |
| Cc1cccc(NC(=O)CN2CCN(C(=O)C3CCCO3)CC2)c1C (stereo not drawn) |  | inactive: -21.4% |
| CCOC(=O)c1c(C)oc2nc(C)nc(NCc3ccc(OC)cc3OC)c12 | inconclusive [inhibitor, partial curve] |  |
| Cc1ccc(NS(=O)(=O)c2c(C(=O)N3CCCCCC3)c(C)n(C)c2C)c(C)c1 | inconclusive [inhibitor, single point] |  |
| Cc1cc(C)n(-c2nc3ccccc3nc2N2CCC(C)CC2)n1 |  | inactive: -17.2% |
| O=C(NCc1ccccc1)c1onc(CSc2ccc(F)c(F)c2)c1C(=O)NCc1ccccc1 | inconclusive [inhibitor, single point] |  |
| COc1ccc(C(O)c2nc(-c3cccs3)cs2)cc1 (stereo not drawn) | inconclusive [inhibitor, partial curve] |  |
| CCOc1ccc(C(C)(C)C)cc1S(=O)(=O)N1CC(C)OC(C)C1 (stereo not drawn) | inconclusive [inhibitor, single point] |  |
| O=C(Nc1cc(C(F)(F)F)ccc1Cl)c1nc2ccccc2nc1N1CCCCC1 |  | inactive: -28.9% |
| N#C/C(=C\c1cn(Cc2ccc(F)cc2)c2ccccc12)C(=O)NCc1ccco1 | active: 18.4 µM |  |

| SMILES | Potency | activity change, negative = growth inhibition |
| --- | --- | --- |
| COc1ccc(CCNC(=O)CSCc2ccc(Cl)cc2)cc1OC | inconclusive [inhibitor, single point] |  |
| CC(=O)c1cccc(NC(=O)CSc2nnc(C(C)N(C)C)n2-c2ccc(F)cc2)c1 (stereo not drawn) | inconclusive [inhibitor, single point] |  |
| CC(=O)COc1ccc2c(-c3ccccc3)cc(=O)oc2c1 | inconclusive [inhibitor, partial curve, poor fit] |  |
| Cc1ccccc1CN1[C@@H](Cc2ccccc2)COCCS1(=O)=O | inconclusive [inhibitor, single point] |  |
| Cc1cnc(C(=O)OCC(=O)N(C)CC(=O)Nc2ccccc2Cl)cn1 |  | inactive: 5.2% |
| COC(=O)c1c(NC(=O)c2ccoc2C)sc(C)c1C |  | inactive: -10.2% |
| O=S(=O)(c1ccc(Cl)cc1)c1nc(-c2ccco2)oc1N1CCCCC1 | inconclusive [inhibitor, single point] |  |
| O=C(Cn1c(=O)nc(-c2ccccc2)c2ccccc21)NCc1ccc(Cl)cc1 | inconclusive [inhibitor, single point] |  |
| Cc1cc(C)c(S(=O)(=O)N2CCCCC2)cc1N(C)S(=O)(=O)c1ccc(Cl)cc1 | active: 23.1 µM |  |
| O=C(NCc1ccco1)C12CN(Cc3ccccc3)CC1C(c1cccc([N+](=O)[O-])c1)=NO2 (stereo not drawn) | inconclusive [inhibitor, single point] |  |
| COc1c(F)c(F)c(C(=O)Nc2ccc(-c3nc4ccccc4[nH]3)cc2)c(F)c1F | active: 6.51 µM |  |
| CN1CCN(c2nc3c(=O)[nH]c(N)nc3n2C2OC(CO)C(O)C2O)CC1 (stereo not drawn) |  | inactive: -11.8% |
| Cn1cc(S(=O)(=O)Cc2ccc(F)cc2)c2ccccc21 |  | inactive: 6.49% |
| Cc1ccc(N=C2NC(=O)/C(=C/c3cccn3C)S2)c(C)c1 | inconclusive [inhibitor, partial curve] |  |
| Oc1ccc(-c2nc3ncccn3c2Nc2ccc3c(c2)OCO3)cc1 | inconclusive [inhibitor, partial curve] |  |
| Cc1ccc(N=C2NC(=O)/C(=C/c3cccs3)S2)cc1C | active: 13 µM |  |
| COc1ccc(Cl)cc1C1=NOC2(CCC2)C(=O)N1Cc1cccc(C#N)c1 | inconclusive [inhibitor, partial curve, poor fit] |  |
| Cc1ccc(S(=O)(=O)N2CCN(C(=O)CCCOc3ccc(Cl)cc3C)CC2)cc1 | inconclusive [inhibitor, single point] |  |
| CCc1ccc(NC(=O)CCn2nc(C)c(S(=O)(=O)N3CCCCC3)c2C)cc1 | active: 23.1 µM |  |
| CCOC(=O)CSc1nsc(SCC(=O)OCC)c1C#N |  | inactive: -9.91% |
| Cc1sc2ncnc(N3CCC(C(=O)Nc4ccccc4C(C)(C)C)CC3)c2c1C | active: 20.6 µM |  |
| CCOCCCN(C(=O)c1ccco1)C(C(=O)NC1CCCC1)c1cccc(OC)c1OC (stereo not drawn) | inconclusive [inhibitor, single point] |  |
| CCOc1ccc(Cn2c(CNS(=O)(=O)c3ccc(Cl)s3)nc3cccnc32)cc1 | active: 18.4 µM |  |
| NS(=O)(=O)c1ccc(CCNC(=O)c2cccc([N+](=O)[O-])c2)cc1 |  | inactive: -28.8% |
| O=c1cc(CCl)nc(Cc2c(Cl)cccc2Cl)[nH]1 | inconclusive [inhibitor, single point] |  |

| SMILES | Potency | activity change, negative = growth inhibition |
| --- | --- | --- |
| O=C(NCc1cc(Cl)cc(Cl)c1)c1ccc2nc(COCCO)[nH]c2c1 | inconclusive [inhibitor, partial curve] |  |
| COc1ccc2c(C)cc(SCC(=O)Nc3nsc(-c4ccccc4C)n3)nc2c1 | inconclusive [inhibitor, single point] |  |
| O=S(=O)(c1ccc(Br)cc1)N1CCN(c2ccc3nnc(-c4ccccc4)n3n2)CC1 | active: 18.4 µM |  |
| O=C(C1CCCCC1)N(Cc1nc2sc3c(c2c(=O)[nH]1)CCCC3)Cc1cccs1 | inconclusive [inhibitor, single point] |  |
| CCOc1ccc(NCc2cc3c(C(C)(C)C)nn(-c4ccccc4)c3[nH]c2=O)cc1 | inconclusive [inhibitor, single point] |  |
| Cc1noc(C)c1S(=O)(=O)NC(=O)C1(C)CCN1C(=O)Cc1ccc(-c2ccccc2)cc1 (stereo not drawn) |  | inactive: -12.3% |
| COCCCNC(=S)N1CCN(c2ccccc2)CC1 |  | inactive: 5.25% |
| CCCCN(C(=O)Cc1coc2cc(C)c(C)cc12)c1c(N)n(Cc2ccccc2)c(=O)[nH]c1=O |  | inactive: -8.22% |
| CCOc1ccccc1NC(=O)C1CCN(S(=O)(=O)c2ccc3c(c2)CC(C)N3C(C)=O)CC1 (stereo not drawn) | inconclusive [inhibitor, single point] |  |
| O=C1c2ccccc2N2C(=O)c3ccccc3C2N1O (stereo not drawn) |  | inactive: -8.86% |
| COc1ccc(C2(CNC(=O)c3cccc([N+](=O)[O-])c3)CCOCC2)cc1OC | inconclusive [inhibitor, single point] |  |
| Cc1cccc(Nc2nc(CC(=O)O)cs2)c1 |  | inactive: -3.44% |
| CCN(c1ccccc1)c1nc(=O)c2cccnc2s1 |  | inactive: -16.5% |
| CCOc1ccc(C(=O)CN2C(=O)NC3(CCCc4ccccc43)C2=O)cc1 (stereo not drawn) | inconclusive [inhibitor, single point] |  |
| CCc1ccccc1NC(=O)c1ccccc1Sc1ccc([N+](=O)[O-])cc1Cl | inconclusive [inhibitor, single point] |  |
| O=C(NCC(c1ccc2c(c1)OCO2)N1CCOCC1)c1cccc(Cl)c1 (stereo not drawn) | inconclusive [inhibitor, single point] |  |
| NC(=O)C1CC(=O)N(c2ccc(OCc3c(Cl)cccc3Cl)cc2)C1 (stereo not drawn) |  | inactive: -5.14% |
| CCC(C)[C@H](NC(=O)OC(C)(C)C)C(=O)N/N=C/c1cccc2nccnc12 (stereo partly drawn) | inconclusive [inhibitor, single point] |  |
| Cc1ccc2nc(-c3ccc(Cl)cc3)c(CC3CCCCC3)n2c1 | inconclusive [inhibitor, single point] |  |
| CCOC(=O)c1c(NC(=O)c2cc(-c3ccc(O)cc3)on2)sc(C(C)=O)c1C | active: 4.61 µM |  |
| N#Cc1cccc(Nc2c3c(nc4ccccc24)CCCC3)c1 | active: 18.4 µM |  |
| Cc1cccc(Nc2ncnc3onc(-c4ccc(F)cc4)c23)c1C | inconclusive [inhibitor, single point] |  |
| CCCCCCCCN1C(=O)[C@H](CC(=O)NCCCN2CCCC2=O)C[C@@]2(C(=O)OC)CCCCC=C12 | inconclusive [inhibitor, single point] |  |
